# Results reported in PubChem BioAssay (NCATS).
# Inconclusive results, whose numbers are uncertain, are shown with a selection of clear calls. Potencies of inconclusive entries are doubtful fits and often do not repeat. Calls of active or inactive are those of the source. The call rests on the fitted dose curve; in most records, active means well fitted cell-killing curve with a large enough effect; inconclusive means small, poorly fitted or top-dose-only effect; inactive means flat fitted curve, though single readings scatter. Numbered stars: 1 amine (or outer) side, 2 acyl side, 3 side chain; on linkers, the order of the positions; unused ones are H or OH. Starred links: 1 amine or outer side, 2 acyl side, 3 side chain; linkers in the order of their positions; H or OH if unused. Positions of bridges follow the written chain, without caps; N, C: chain ends. Non-standard residues stand in square brackets, D forms with d. Square brackets hold non-standard residues; d marks the D form. Residues, ends and D or L forms follow the SMILES beside them. Peptide text beside a SMILES is read from it. ξ: configuration not given here. X3 = CCCCCCCCCC(=O)[C@H](C(=O)[*:2])[C@@H]1CNC(=O)[C@@H](N[*:1])CS1; Phe(3R-OH) = O=C([C@@H](N[*:1])[C@H](O[*:3])c1ccccc1)[*:2]; NMeTrp(4-OMe) = CN[C@@H](Cc1c[nH]c2cccc(OC)c12)C(=O)O; ξThr(3R)(O-yl) = C[C@@H](O[*:3])C(N[*:1])C(=O)[*:2]; NMeThr(3ξ) = CN[C@H](C(=O)O)C(C)O; NMeL = CN[C@@H](CC(C)C)C(=O)O; NMeV = CN[C@H](C(=O)O)C(C)C; ξIle = CC[C@H](C)C(N)C(=O)O; ξV = CC(C)C(N)C(=O)O
# Experiment: COV-362 Cancer Cell Toxicity qHTS against the NCATS CANVASS Library (AID 1347352)
# Details: COV-362 viability, CellTiter-Glo luminescence, 72 h; series mostly up to 38.3 µM; activity change, negative = cytotoxicity: at the top concentration
# Source text: Natural products and their derivatives continue to be wellsprings of nascent therapeutic potential. However, many laboratories have limited resources for biological evaluation, leaving their previously isolated or synthesized compounds largely or completely untested. To address this issue, the Canvass library of natural products was assembled (https://tripod.nih.gov/canvass), in collaboration with academic and industry researchers, for quantitative high-throughput screening (qHTS) across a diverse set of cell-based and biochemical assays. The pure (>85% purity by liquid chromatography/mass spectrometry [LC/MS]) Canvass library of 346 natural products were submitted by 45 academic laboratories and companies around the world. We collected pure natural products to circumvent deconvolution and structure elucidation due to time and resource limitations. The library was formatted into 1536-well plates and evaluated in 50 qHTS (in an 11-pnt concentration series) bioassays with broad scope of disease-relevant mechanisms. The resulting data set from 50 different assays was then systematically analyzed to identify overall trends and specific natural products with interesting biological activities. Reported herein are the results of each individual qHTS and their corresponding assay protocol. National Center for Advancing Translational Sciences (NCATS), Rockville, MD National Institute of Health (NIH), Bethesda, Maryland
# Cancer Cell Toxicity COV-362, OV-KATE, OV-SAHO, UWB1.289, UWB1.289-WTBRCA1, HEK-293, HPAF-II, Panc-1005, SW1088, and U-118MG-screen protocol. 1. In a 1536 well, white solid bottom tissue culture plates (Corning 7494), corresponding cells (COV-362, OV-KATE, OV-SAHO, UWB1.289, UWB1.289-WTBRCA1, HEK-293, HPAF-II, Panc-1005, SW1088, or U-118MG) were dispensed in each well at a final concentration of 1000 cells / well (6uL volume) using the Multidrop Combi (Thermo Fisher Scientific) dispenser. 2. The plates were incubated for 4 hours at 37 degrees C/5% CO2/95% Rh. 3. Compounds were pin transferred (~23nL volume) via Wako Pin-tool (Wako Automation, Richmond VA) equipped with a 1536 pin head. The assay plates were treated with compounds in an 11-pnt concentration series with a final concentration range of […] to 85uM. 4. Bortezomib was used as a single dose control (0.5mM column 4, rows 1 - 32) at a final concentration of 1.9uM and as a 16pnt titration (1mM; 1:2 dilution; 16-points; n = 2; column 3, rows 1 - 32) with final concentration range of 0.1nM - 3.8uM. 5. The assay plates were incubated for 72 hours at 37 degrees C/5% CO2/95% Rh. 6. 3uL CellTiter-Glo detection reagent was then added to the plates (columns 2 - 48, rows 1 - 32) and incubated at room temperature for additional 15min. 7. Luminescence signal was acquired via the ViewLux plate reader (PerkinElmer) using a clear filter, 2 second exposure and 2x binning settings.
# On the % scale 0 is the no-effect control and ±100 the full control effect; potency means the concentration at half of the fitted maximal effect; tags describe the fitted curve by direction and shape.
Compound,"activity change, negative = cytotoxicity",Potency
CN1C(=O)C2C(N=CN2C)N(C)C1=O (stereo not given),inactive: -0.837%,
CC1=C(C)C(=O)OC(C(C)C2(O)CCC3C4C5OC5C5(O)CC=CC(=O)C5(C)C4CCC32C)C1 (stereo not given),,"inconclusive: 29.8 µM [cytotoxic, partial curve, poor fit]"
Oc1ccc(C2Oc3cc(O)c4c(c3[C@@H]2c2cc(O)cc(O)c2)[C@H]2C(c3ccc(O)cc3)c3c(O)cc5c(c3[C@H]2C4c2ccc(O)cc2)[C@H](c2cc(O)cc(O)c2)C(c2ccc(O)cc2)O5)cc1 (stereo not given in full),,"inconclusive: 11.8 µM [cytotoxic, partial curve]"
CN1CCc2cc3c(c4c2[C@H]1[C@@H](O)c1ccccc1-4)OCO3,,"inconclusive: 14.9 µM [cytotoxic, partial curve]"
C/C(=C\[C@H](C)C(=O)C[C@H](O)CC1CC(=O)NC(=O)C1)[C@@H]1OC(=O)CCCC/C=C/C[C@@H](O)[C@@H]1C,,"inconclusive: 7.47 µM [cytotoxic, partial curve]"
CN1CC[C@]2(c3cccc4c3N[C@@H]3N(C)CC[C@]43[C@@]34CCN(C)[C@@H]3Nc3ccccc34)c3ccccc3N[C@H]12,,active: 13.3 µM
CC1=CC2=C[C@H](C)C[C@@]23OC(=C(C)C3=O)CC(C)(C)/C=C/C1=O,,"inconclusive: 3.34 µM [cytotoxic, partial curve, poor fit]"
CCCCCCCCCC(=O)[C@@H]1C(=O)N[C@@H](CC(C)C)C(=O)N[C@H](C)C(=O)N2CCC[C@H]2C(=O)N[C@@H](C(C)C)C(=O)N[C@H]2CS[C@H]1CNC2=O (cyclo(L[dA]PV[X3])),inactive: -5.03%,
COc1ccc([C@@H]2c3cc4c(cc3C[C@H](C)C2C)OCO4)cc1OC (stereo not given in full),,"inconclusive: 9.41 µM [cytotoxic, full curve]"
C[C@@]12C[C@@H](C[C@@H]3C(=O)O[C@@H](c4ccoc4)[C@H](OC(=O)c4ccccc4)[C@@H]31)OC2=O,inactive: 1.78%,
COc1ccc([C@@H]2c3cc(OC)c(OC)cc3C(=O)[C@H](C)C2C)cc1OC (stereo not given in full),inactive: -1.95% [at 7.64 µM],
COc1cc([C@@H]2c3cc4c(cc3C[C@@]3(O[C@@H]5O[C@H](CO)[C@@H](O)[C@H](O)[C@H]5O)COC(=O)[C@H]23)OCO4)cc(OC)c1OC,,"inconclusive: 0.0375 µM [cytotoxic, full curve]"
C[C@@H](O)[C@H]1OC(=O)C=C2[C@]3(C)[C@H]4[C@H](OC(=O)[C@@]4(C)[C@@H](O)[C@H]4O[C@H]43)[C@H]3O[C@@]231,,active: 1.88 µM
CC[C@H](C)C(NC(=O)[C@@H](NC)C(C)C)C(=O)NC1C(=O)N(C)[C@@H](C(C)O)C(=O)N[C@@H](C(C)C)C(=O)N(C)[C@@H](CC(C)C)C(=O)NC(C(C)C)C(=O)N(C)[C@@H](C(C)C)C(=O)N(C)[C@@H](Cc2c[nH]c3cccc(OC)c23)C(=O)N[C@@H](C(C)C)C(=O)N[C@@H]([C@H](O)c2ccccc2)C(=O)N[C@@H](C(C)C)C(=O)O[C@@H]1C (stereo partly drawn) (H-[NMeV][ξIle][ξThr(3R)(O-yl)][NMeThr(3ξ)]V[NMeL][ξV][NMeV][NMeTrp(4-OMe)]V[Phe(3R-OH)]V; ester 3-C),inactive: -16.9%,
O=C(O)CC1OC(=O)c2c(O)cccc21 (stereo not given),inactive: -1.6%,
C/C(=C\[C@H](C)C(=O)C[C@H](O)CC1CC(=O)NC(=O)C1)[C@@H]1OC(=O)CCCC/C=C/[C@@H](O)C[C@@H]1C,,"inconclusive: 11.8 µM [cytotoxic, partial curve]"
C/C(=C\[C@H](C)C(=O)CCCC1CC(=O)NC(=O)C1)[C@@H]1OC(=O)/C=C/CC/C=C/[C@H](O)[C@@H](O)[C@@H]1C,,"inconclusive: 0.666 µM [cytotoxic, full curve]"
C/C1=C/[C@@H](C)[C@H](O)C/C=C/CC/C=C/C(=O)O[C@@H]1[C@H](C)C(=O)/C=C/CC1CC(=O)NC(=O)C1,,"inconclusive: 4.2 µM [cytotoxic, full curve]"
COc1cc(C2C3=C(Cc4cc5c(cc42)OCO5)C(=O)OC3)cc(OC)c1OC (stereo not given),,"inconclusive: 0.106 µM [cytotoxic, full curve]"
O=C1c2c(O)cc(O)cc2OC(c2ccc(O)cc2)C1O (stereo not given),inactive: 0.15%,

Compound,"activity change, negative = cytotoxicity",Potency
CC(C)(Br)[C@@H](Cl)C[C@H](Br)[C@](C)(Cl)/C=C/Br,,"inconclusive: 18.8 µM [cytotoxic, single point]"
C/C1=C/[C@@H](C)[C@H](O)[C@@H](O)/C=C/CC/C=C/C(=O)O[C@@H]1[C@H](C)C(=O)CCCC1CC(=O)NC(=O)C1,inactive: -6.99%,
COc1cc2c(cc1OC)[C@@H](c1ccc3c(c1)OCO3)C(C)C(C)C2=O (stereo not given in full),inactive: -27.3%,
CO[C@H]1/C=C/CCCCC(=O)O[C@@H](/C(C)=C/[C@H](C)C(=O)C[C@H](O)CC2CC(=O)NC(=O)C2)[C@@H](C)C1,,"inconclusive: 13.3 µM [cytotoxic, partial curve]"
CCCCCCCCCCCCCCC[C@H](O)C[C@@H](O)C[C@@H](O)C[C@@H](O)C[C@@H](O)C[C@H]1CC=CC(=O)O1,,active: 3.34 µM
CN1CCc2cc3c(c4c2C1(C)C(=O)c1cc(O)ccc1-4)OCO3 (stereo not given),,"inconclusive: 11.8 µM [cytotoxic, partial curve]"
COC(=O)c1cc2cc3c(c(O)c2c(=O)o1)OC1(CC3)CC2=C(O1)C(=O)c1c(O)c(OC)cc(OC)c1C2=O (stereo not given),,"inconclusive: 18.8 µM [cytotoxic, single point]"
CC(C)=CC[C@H]1C[C@@]2(CC=C(C)C)C(=O)[C@](CC=C(C)C)(C(=O)C(C(=O)c3ccccc3)=C2O)C1(C)C,,"inconclusive: 18.8 µM [cytotoxic, partial curve]"
CO/C=C/C(=O)c1cc2cnc3c(N)cc(=NC(=O)C(C)C)c([nH]1)c23,,active: 0.211 µM
O[C@H]1c2ccccc2-c2c3c(cc4c2[C@@H]1NCC4)OCO3,,"inconclusive: 18.8 µM [cytotoxic, single point]"
C/C(=C\[C@H](C)C(=O)/C=C/CC1CC(=O)NC(=O)C1)[C@@H]1OC(=O)/C=C/CC/C=C/C[C@@H](O)[C@@H]1C,,active: 2.36 µM
COc1ccc([C@@H]2c3cc(OC)c(OC)cc3C(=O)C(C)C2C)cc1OC (stereo not given in full),inactive: -6.33%,
C/C=C/C1C=CC2CC(C)CC(C)C2C1C(=O)CC(=O)NC(CO)C/C=C/CCCCC (stereo not given),,"inconclusive: 14.9 µM [cytotoxic, partial curve]"
CC1=C[C@H]2[C@H]3C(=O)C(c4ccc(O)cc4)=C[C@@]3(c3ccc(O)cc3)[C@@H]1C(=O)[C@]2(C)O,,"inconclusive: 0.211 µM [cytotoxic, full curve]"
O=C(O)CC1OCc2c(O)cccc21 (stereo not given),inactive: -6.86%,
C[C@@H]1O[C@H](c2c(O)cc(O)c3c(=O)cc(-c4ccc(O)cc4)oc23)[C@H](O)[C@H](O)[C@H]1O,inactive: 0%,
O=C(OC[C@H]1O[C@@H](OC(=O)c2cc(O)c(O)c(O)c2)[C@H](OC(=O)c2cc(O)c(O)c(O)c2)[C@@H](OC(=O)c2cc(O)c(O)c(O)c2)[C@@H]1OC(=O)c1cc(O)c(O)c(O)c1)c1cc(O)c(O)c(O)c1,,"inconclusive: 16.7 µM [cytotoxic, partial curve]"
C/C1=C\CC(=O)/C=C/C=C\c2csc(n2)[C@@H](C)NC(=O)C[C@@](S)([C@@H](C)C(=O)O)CC1,inactive: -7.89%,
CCC(=O)CCCCC[C@@H]1NC(=O)[C@H]2CCCCN2C(=O)[C@H](C(C)C)NC(=O)[C@H](Cc2cn(OC)c3ccccc23)NC1=O,,active: 18.8 µM
C=C1C(=O)O[C@H]2[C@H]1CC/C(CO)=C\CC[C@@]1(C)O[C@@H]21,,active: 13.3 µM
